Measurements taken from PMC5744998.
No constants are given. Whether binding was seen depends on the method and setting. For part of these data: Binding seen in cells or lysates may run through a third protein. Some binding calls cover weakened binding; strength is not graded here.

The chains behind the UniProt entries cited, without tags or fusion partners. Where a name states a change or a piece, a line headed by the entry shows the natural chain unless it says otherwise. A line that says so, or that is headed by a name, gives the form on record, which may keep a tag or linker.
UniProt Q99814: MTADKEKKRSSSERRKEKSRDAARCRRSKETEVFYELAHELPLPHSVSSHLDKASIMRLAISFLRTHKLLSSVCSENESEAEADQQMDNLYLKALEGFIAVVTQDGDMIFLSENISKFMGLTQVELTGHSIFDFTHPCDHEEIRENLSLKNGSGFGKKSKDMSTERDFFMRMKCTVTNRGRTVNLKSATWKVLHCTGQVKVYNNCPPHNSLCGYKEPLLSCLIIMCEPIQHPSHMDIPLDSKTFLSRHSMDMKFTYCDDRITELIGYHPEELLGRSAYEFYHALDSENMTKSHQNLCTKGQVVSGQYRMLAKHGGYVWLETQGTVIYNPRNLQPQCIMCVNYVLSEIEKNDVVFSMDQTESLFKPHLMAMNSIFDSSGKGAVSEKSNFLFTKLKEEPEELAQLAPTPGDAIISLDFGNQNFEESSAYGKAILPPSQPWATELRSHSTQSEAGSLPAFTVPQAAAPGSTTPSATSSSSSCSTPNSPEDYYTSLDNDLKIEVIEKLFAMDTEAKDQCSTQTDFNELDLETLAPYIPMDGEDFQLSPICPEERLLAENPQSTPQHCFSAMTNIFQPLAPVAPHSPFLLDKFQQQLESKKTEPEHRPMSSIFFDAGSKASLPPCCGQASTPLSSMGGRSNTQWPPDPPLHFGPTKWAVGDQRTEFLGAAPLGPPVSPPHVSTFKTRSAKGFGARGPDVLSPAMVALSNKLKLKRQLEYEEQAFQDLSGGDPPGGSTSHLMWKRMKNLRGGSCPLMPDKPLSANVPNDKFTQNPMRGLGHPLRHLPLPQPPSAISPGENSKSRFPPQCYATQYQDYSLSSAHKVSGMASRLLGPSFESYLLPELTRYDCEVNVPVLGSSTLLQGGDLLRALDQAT
ectopic arginine-substituted mutant (R3) human HIF-2α, V5- and HA-tagged, in HT1080 knockdown/rescue cells (Q99814, form named): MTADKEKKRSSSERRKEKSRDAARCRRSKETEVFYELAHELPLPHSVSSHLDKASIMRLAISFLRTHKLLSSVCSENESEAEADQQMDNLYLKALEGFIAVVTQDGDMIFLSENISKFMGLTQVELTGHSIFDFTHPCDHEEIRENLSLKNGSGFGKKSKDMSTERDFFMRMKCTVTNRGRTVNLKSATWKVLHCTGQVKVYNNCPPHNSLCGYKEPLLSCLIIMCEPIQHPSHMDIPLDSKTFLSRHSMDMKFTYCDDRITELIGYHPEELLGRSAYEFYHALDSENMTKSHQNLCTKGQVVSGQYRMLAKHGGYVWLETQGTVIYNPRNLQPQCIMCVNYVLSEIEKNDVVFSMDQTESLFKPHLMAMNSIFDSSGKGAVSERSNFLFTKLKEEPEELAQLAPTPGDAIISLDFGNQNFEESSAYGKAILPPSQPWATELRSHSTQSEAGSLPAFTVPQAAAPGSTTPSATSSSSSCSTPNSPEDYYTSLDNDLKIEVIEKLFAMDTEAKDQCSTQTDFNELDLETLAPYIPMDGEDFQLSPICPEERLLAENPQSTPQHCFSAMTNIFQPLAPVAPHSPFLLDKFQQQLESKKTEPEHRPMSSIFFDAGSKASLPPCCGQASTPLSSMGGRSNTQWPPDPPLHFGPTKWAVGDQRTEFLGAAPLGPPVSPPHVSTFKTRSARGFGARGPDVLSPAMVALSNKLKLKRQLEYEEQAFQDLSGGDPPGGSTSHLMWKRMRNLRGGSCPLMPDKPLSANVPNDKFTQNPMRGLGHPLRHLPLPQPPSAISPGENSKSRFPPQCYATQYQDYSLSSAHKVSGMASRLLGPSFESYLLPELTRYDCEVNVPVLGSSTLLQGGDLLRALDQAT
UniProt Q92793: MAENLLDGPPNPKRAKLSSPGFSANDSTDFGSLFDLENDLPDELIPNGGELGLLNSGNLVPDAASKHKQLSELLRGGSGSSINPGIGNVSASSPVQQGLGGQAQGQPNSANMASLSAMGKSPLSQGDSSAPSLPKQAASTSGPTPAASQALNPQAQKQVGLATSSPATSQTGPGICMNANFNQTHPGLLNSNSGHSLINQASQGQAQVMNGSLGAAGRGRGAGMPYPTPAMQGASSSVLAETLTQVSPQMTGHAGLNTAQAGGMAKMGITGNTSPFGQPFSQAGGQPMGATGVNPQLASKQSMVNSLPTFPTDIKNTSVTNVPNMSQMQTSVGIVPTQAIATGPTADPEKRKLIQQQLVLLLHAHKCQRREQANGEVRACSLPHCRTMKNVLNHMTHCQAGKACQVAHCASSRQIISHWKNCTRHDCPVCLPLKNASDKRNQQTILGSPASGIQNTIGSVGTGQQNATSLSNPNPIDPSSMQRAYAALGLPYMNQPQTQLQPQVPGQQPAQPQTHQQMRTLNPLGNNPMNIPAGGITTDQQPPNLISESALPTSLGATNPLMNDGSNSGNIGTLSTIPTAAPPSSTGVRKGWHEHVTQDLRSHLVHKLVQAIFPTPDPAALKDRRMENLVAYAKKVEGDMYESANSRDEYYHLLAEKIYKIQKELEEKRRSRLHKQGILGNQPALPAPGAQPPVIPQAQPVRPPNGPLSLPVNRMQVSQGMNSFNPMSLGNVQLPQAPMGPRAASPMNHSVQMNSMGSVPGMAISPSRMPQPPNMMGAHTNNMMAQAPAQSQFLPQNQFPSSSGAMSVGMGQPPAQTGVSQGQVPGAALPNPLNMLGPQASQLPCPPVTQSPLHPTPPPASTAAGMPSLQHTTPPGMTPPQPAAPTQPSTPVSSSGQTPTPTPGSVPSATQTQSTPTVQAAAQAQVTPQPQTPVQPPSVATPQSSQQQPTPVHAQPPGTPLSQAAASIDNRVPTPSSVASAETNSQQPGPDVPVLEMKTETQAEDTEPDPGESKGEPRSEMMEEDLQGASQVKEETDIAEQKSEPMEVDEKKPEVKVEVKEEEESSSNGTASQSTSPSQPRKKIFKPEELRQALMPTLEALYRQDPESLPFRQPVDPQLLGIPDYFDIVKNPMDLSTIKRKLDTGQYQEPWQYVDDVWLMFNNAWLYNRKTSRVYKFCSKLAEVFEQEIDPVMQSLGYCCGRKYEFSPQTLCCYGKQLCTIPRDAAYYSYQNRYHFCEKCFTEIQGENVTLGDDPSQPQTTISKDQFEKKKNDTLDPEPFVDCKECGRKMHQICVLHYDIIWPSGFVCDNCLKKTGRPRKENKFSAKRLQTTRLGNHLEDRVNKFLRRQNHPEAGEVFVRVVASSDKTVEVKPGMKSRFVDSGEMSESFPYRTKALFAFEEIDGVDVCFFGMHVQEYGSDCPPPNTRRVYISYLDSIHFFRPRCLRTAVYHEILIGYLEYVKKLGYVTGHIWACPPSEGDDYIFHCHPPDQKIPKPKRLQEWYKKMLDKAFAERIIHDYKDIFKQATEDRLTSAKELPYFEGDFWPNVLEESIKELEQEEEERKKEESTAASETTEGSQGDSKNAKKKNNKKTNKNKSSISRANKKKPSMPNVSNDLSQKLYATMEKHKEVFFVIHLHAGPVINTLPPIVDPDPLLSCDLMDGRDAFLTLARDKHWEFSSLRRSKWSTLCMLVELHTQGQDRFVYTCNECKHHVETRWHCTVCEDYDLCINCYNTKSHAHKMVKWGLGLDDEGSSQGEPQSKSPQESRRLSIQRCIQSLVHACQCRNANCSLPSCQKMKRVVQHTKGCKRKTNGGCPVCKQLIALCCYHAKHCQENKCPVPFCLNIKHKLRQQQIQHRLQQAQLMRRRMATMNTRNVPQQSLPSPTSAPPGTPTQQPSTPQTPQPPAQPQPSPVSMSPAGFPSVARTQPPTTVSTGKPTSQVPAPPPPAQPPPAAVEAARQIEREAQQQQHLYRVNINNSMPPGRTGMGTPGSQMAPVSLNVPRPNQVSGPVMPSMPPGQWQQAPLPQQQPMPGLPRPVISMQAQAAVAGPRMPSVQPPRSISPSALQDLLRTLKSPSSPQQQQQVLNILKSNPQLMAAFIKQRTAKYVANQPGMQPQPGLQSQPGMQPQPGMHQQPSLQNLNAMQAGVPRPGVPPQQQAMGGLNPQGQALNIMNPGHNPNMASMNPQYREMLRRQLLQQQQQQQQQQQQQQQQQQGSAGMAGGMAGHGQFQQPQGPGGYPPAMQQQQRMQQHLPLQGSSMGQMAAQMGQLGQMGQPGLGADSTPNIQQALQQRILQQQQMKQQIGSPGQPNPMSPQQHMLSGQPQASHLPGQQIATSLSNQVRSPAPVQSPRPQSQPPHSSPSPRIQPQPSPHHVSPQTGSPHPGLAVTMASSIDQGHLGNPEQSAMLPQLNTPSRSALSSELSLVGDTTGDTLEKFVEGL
UniProt Q09472: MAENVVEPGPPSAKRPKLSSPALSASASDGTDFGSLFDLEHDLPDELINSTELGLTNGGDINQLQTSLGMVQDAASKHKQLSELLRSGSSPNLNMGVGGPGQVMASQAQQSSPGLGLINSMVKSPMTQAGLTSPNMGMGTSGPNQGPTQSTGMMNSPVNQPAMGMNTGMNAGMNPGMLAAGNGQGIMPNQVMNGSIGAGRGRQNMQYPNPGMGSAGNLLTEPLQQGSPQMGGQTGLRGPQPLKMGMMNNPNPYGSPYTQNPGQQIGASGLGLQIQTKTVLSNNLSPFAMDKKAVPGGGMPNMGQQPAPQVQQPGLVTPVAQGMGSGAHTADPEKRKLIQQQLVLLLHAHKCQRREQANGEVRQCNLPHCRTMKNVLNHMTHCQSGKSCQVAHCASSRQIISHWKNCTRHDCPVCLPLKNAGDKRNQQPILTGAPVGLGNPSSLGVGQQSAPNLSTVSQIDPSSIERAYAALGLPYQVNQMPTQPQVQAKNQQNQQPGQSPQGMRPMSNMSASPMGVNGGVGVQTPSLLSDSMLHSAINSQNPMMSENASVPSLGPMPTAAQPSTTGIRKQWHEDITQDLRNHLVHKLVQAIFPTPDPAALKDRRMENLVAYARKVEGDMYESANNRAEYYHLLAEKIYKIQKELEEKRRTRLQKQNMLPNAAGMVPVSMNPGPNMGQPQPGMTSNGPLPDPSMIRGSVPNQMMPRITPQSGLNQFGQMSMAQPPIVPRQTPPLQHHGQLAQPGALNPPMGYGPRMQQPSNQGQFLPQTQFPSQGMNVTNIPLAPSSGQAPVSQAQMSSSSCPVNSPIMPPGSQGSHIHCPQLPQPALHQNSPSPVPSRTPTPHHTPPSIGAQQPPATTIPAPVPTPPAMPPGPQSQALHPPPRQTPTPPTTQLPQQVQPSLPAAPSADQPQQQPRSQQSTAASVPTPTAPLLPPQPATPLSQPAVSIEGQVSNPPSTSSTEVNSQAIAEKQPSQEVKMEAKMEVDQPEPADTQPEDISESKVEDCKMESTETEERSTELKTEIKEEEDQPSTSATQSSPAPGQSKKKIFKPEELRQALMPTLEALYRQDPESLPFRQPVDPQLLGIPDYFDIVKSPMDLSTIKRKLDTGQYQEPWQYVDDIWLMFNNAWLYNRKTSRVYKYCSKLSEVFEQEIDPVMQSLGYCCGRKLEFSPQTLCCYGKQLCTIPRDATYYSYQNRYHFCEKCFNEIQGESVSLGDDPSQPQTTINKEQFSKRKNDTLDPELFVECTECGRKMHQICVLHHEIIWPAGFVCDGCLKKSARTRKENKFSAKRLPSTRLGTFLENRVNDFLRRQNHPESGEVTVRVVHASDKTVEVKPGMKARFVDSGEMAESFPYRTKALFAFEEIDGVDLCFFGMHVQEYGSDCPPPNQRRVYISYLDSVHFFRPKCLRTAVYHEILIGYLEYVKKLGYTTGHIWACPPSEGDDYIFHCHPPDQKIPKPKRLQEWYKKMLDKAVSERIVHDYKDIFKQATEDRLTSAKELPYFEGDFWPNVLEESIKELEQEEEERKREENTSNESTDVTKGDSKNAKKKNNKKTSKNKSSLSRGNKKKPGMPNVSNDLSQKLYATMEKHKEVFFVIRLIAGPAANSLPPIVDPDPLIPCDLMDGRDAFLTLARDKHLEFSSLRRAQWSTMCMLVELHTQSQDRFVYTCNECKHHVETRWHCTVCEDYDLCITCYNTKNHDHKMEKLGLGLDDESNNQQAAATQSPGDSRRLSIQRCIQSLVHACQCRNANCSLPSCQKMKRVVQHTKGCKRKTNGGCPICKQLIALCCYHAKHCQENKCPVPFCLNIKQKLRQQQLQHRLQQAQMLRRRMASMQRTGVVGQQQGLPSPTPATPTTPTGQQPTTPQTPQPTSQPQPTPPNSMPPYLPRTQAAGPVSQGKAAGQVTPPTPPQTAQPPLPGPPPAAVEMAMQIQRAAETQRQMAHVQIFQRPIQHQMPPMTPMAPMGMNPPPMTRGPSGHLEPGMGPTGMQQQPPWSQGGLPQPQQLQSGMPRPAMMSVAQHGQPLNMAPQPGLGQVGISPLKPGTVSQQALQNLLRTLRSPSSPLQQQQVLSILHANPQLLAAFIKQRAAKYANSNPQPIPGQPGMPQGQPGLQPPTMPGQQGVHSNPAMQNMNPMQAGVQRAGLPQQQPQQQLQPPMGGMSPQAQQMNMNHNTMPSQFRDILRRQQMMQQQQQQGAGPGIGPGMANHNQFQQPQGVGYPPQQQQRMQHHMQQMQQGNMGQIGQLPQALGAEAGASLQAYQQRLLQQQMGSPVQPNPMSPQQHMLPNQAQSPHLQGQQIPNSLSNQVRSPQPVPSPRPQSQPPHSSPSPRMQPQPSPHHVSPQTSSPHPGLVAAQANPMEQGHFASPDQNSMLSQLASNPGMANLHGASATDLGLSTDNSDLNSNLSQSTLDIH

What was measured:
[1] = target: ectopic arginine-substituted mutant (R3) human HIF-2α, V5- and HA-tagged, in HT1080 knockdown/rescue cells (human) (UniProt Q99814); assay: co-IP; ectopic K3 or R3 HIF-2α precipitated from stably transformed knockdown/rescue HT1080 cells after 0, 4, 16 hr hypoxia (1% O2) or 0, 2, 24 hr low glucose (1 mM); blots for endogenous Cbp or p300
[2] = target: ectopic wild-type (K3) human HIF-2α, V5- and HA-tagged, in HT1080 knockdown/rescue cells (human) (UniProt Q99814); assay: as above
[3] = target: ectopic wild-type (K3) human HIF-2α, V5- and HA-tagged, in HT1080 knockdown/rescue cells (human) (UniProt Q99814); assay: sequential chromatin immunoprecipitation (Re-ChIP); HT1080 knockdown/rescue cells under control, hypoxia or low glucose; first ChIP with anti-V5 (ectopic HIF-2α) or anti-HIF-2α (endogenous), second ChIP with anti-Cbp; qPCR of HIF-responsive regulatory regions of HIF-2 target genes
[4] = target: endogenous HIF-2α of HT1080 cells (human (endogenous in HT1080)) (UniProt Q99814); assay: as above

Row | binding [1] | binding [2] | binding [3] | binding [4] | Substance
1 | no binding | binds | binds | binds | endogenous Creb binding protein (Cbp) of HT1080 cells (from UniProt Q92793 1-2442)
2 | binds | binds | – | – | endogenous p300 of HT1080 cells (from UniProt Q09472 1-2414)
